Broadly, the T/C is the result in the treated group divided by that in the control group, in per cent.

Data set [1] in a line: Diffusion interaction parameter (kD) by DLS. Type of data set: physicochemical. How it is done: DLS-kD measurement was investigated using DynaPro plate reader III (Wyatt Technology). During the preparation of antibody samples, the appearance of the samples was recorded upon thawing, filtration and concentration. The antibody samples were concentrated to over 20 mg/mL and then diluted with PBS buffer to final concentrations of 2.5 mg/mL, 5 mg/mL, 10 mg/mL, 15 mg/mL, and 20 mg/mL. 7.5 μL of a sample solution was then added to a 1536-well microplate (Aurora-ABI1-00110A). The plate was sealed with ClearSeal film (Hampton Research-HR4-521) and centrifuged at 3,000 rpm for 5 min to allow the sample to descend to the bottom of the well. Each sample was tested in two duplicate wells. The plate was placed in the corresponding position and data collection was performed by the DYNAMICS operation software (v7.8.1.3). 5 acquisitions were collected for each protein sample while each acquisition time was 5 seconds. For each measurement, the diffusion coefficient was determined and plotted against the protein concentration.

Data set [2] has as its system LD1-2034-362055 patient-derived prostate cancer tumor cells. Nature of the data set: Prostate cancer micro patient-derived xenograft model LD1-2034-362055. Type of data set: in vivo, mice. The note with it: 10 mg/kg single tail vein injection, 10 days, LD1-2034-362055 model. From the text: Tumor tissues of patient-derived prostate cancer transplantation models LD1-2027-410644 and LD1-2034-362055 (obtained from Shanghai LIDE Biotech., Co. Ltd.) were inoculated subcutaneously into mice. When the tumors grew to 500-800 mm^3, the tumor tissues were surgically and aseptically removed from the mice, and non-tumor tissues and necrotic tissues were removed in a biosafety cabinet to ensure the purity of the inoculated tumor tissues. The mice were euthanized. The treated tumor tissues were cut into small tumor masses of 1-3 mm^3, and the tumor masses were digested with the collagenase digest at 37° C. for 1-2 h. The supernatant was removed by centrifugation at 1200 rpm for 3 min, and the cells were resuspended in 10 mL of PBS containing 1% FBS and counted on a hemocytometer. […] The cells were resuspended in an RPMI1640 cell culture medium and counted on a hemocytometer. […]
The cell suspension was placed into capsules. […] The day of inoculation was recorded as day 0, and the animals were subjected to a single administration by tail vein injection. […]
At the end of the experiment, the mice were euthanized. The capsules were removed and cell viability assay was performed with CellTiter-Glo, i.e., the capsules were cut into pieces, PBS and CellTiter-Glo™ reagent with the same volume were added, and the luminescence value was measured. […]
On the technique in general: Xenograft models place foreign cells or tissue in a host animal.

For data set [3], the system named is U87 human brain cancer cells. As to the kind of experiment: U87 MG subcutaneous xenograft tumor-bearing mouse model. Format: in vivo, mice. The note with it: for T/C / TGI: day 20. From the text: (§1) 6- to 8-week-old female NCG mice (purchased from Jiangsu GemPharmatech Co., Ltd.) were used as test animals. 5×10^6 U87 human brain cancer cells were inoculated subcutaneously into the right sides of the necks or dorsa of 6- to 8-week-old female NCG mice. The growth of tumors in mice was observed. When the volume of the tumors reached about 187 mm^3, the tumor-bearing mice were randomized into groups with 6 mice in each of the blank control group and the treatment groups. […] Doses administered were 1 mg/kg and 3 mg/kg. The experiment ended on day 20. Experimental grouping and dosing were as follows.
(§2) At the end of the experiment, mice were euthanized and tumor inhibition rate TGI was calculated as follows:
(§3) [formula] • Ti: mean tumor volumes of the treatment groups and the positive control group on day i of administration; • T0: mean tumor volumes of the treatment groups and the positive control group on day 0 of administration; • Vi: mean tumor volume of the negative control group on day i of administration; • V0: mean tumor volume of the negative control group on day 0 of administration.

Data set [4] concerns Calu-6 human lung cancer cells. Nature of the data set: Calu-6 subcutaneous xenograft tumor-bearing mouse model. Type of data set: in vivo, mice.
Description: as §1, with “BALB/c Nude” for “NCG”, “Zhejiang Vital River Laboratory Animal Technology” for “Jiangsu GemPharmatech”, “10×10^6 Calu-6 lung” for “5×10^6 U87 human brain”, “right” for “right sides of the necks or”, “139” for “187”, “28.” for “20.”
as §2, §3

Where [5] appears, read: 1 mg/kg i.v. single dose, day 24.
[6] abbreviates: 3 mg/kg i.v. single dose, day 24.

B1: W301088-1.145.16-z3-p1-uIgG1KV320: humanized anti-B7H3 IgG1 antibody, heavy chain SEQ ID NO: 12, light chain SEQ ID NO: 13 (antibody)
heavy: QVQLQESGPGLVKPSQTLSLTCTVTDYSITGDYAWNWIRQHPGKGLEWIGYISYSGSTSYNPSLQSRVTISRDTSKNQFSLKLSSVTAADTAVYFCARSLGRRWYFVVWGQGTTVTVSSASTKGPSVFPLAPSSKSTSGGTAALGCLVKDYFPEPVTVSWNSGALTSGVHTFPAVLQSSGLYSLSSVVTVPSSSLGTQTYICNVNHKPSNTKVDKRV[not shown - human IgG1 Fc with changes]
light: DIVMTQSPDSLAVSLGERATINCKSSQSLLQSSNQKNYLAWYQQKPGQPPKLLIYFASTRESGVPDRFSGSGSGTDFTLTISSLQAEDVAVYYCQQHYSAPWTFGGGTKVEIKRTVAAPSVFIFPPSDEQLKSGTASVVCLLNNFYPREAKVQWKVDNALQSGNSQESVTEQDSKDSTYSLSSTLTLSKADYEKHKVYACEVTHQGLSSPVTKSFNRGEC
Turning to B1, the “appearance of the antibody protein” value in data set [1] (PBS, after thawing and gently shaking) is given as “some particles were observed”; in data set [1] (buffer exchanged to 20 mM His, 8% sucrose, 0.02% PS80, pH 6.5), “no particle was observed”.

B2: WBP301088-X2: antibody WBP301088 conjugated to linker-payload X2; the DAR6 batch was used in Examples 3-11 (conjugate)
heavy: QVQLQESGPGLVKPSQTLSLTCTVTDYSITGDYAWNWIRQHPGKGLEWIGYISYSGSTSYNPSLQSRVTISRDTSKNQFSLKLSSVTAADTAVYFCARSLGRRWYFVVWGQGTTVTVSSASTKGPSVFPLAPSSKSTSGGTAALGCLVKDYFPEPVTVSWNSGALTSGVHTFPAVLQSSGLYSLSSVVTVPSSSLGTQTYICNVNHKPSNTKVDKRV[not shown - human IgG1 Fc with changes]
light: DIVMTQSPDSLAVSLGERATINCKSSQSLLQSSNQKNYLAWYQQKPGQPPKLLIYFASTRESGVPDRFSGSGSGTDFTLTISSLQAEDVAVYYCQQHYSAPWTFGGGTKVEIKRTVAAPSVFIFPPSDEQLKSGTASVVCLLNNFYPREAKVQWKVDNALQSGNSQESVTEQDSKDSTYSLSSTLTLSKADYEKHKVYACEVTHQGLSSPVTKSFNRGEC
As to B2, the “Mean signal value (CellTiter-Glo cell viability at endpoint)” value in data set [2] turned out to be 1118020.86. For the same molecule, the Tumor volume in data set [3] (1 mg/kg i.v. single dose, Day 0) was determined as 187 ± 25 mm^3; in data set [3] (1 mg/kg i.v. single dose, Day 3) it was 234 ± 27 mm^3; in data set [3] (1 mg/kg i.v. single dose, Day 6) it was 308 ± 49 mm^3; in data set [3] (1 mg/kg i.v. single dose, Day 9), 387 ± 42 mm^3; in data set [3] (1 mg/kg i.v. single dose, Day 13), 439 ± 51 mm^3; in data set [3] (1 mg/kg i.v. single dose, Day 16) it was 646 ± 42 mm^3. Further, the Tumor volume was 1074 ± 64 mm^3 in data set [3] (1 mg/kg i.v. single dose, Day 20); 188 ± 20 mm^3 in data set [3] (3 mg/kg i.v. single dose, Day 0); 220 ± 25 mm^3 in data set [3] (3 mg/kg i.v. single dose, Day 3); 254 ± 43 mm^3 in data set [3] (3 mg/kg i.v. single dose, Day 6); 231 ± 45 mm^3 in data set [3] (3 mg/kg i.v. single dose, Day 9); 202 ± 49 mm^3 in data set [3] (3 mg/kg i.v. single dose, Day 13). Further, the Tumor volume stood at 266 ± 80 mm^3 in data set [3] (3 mg/kg i.v. single dose, Day 16); 474 ± 148 mm^3 in data set [3] (3 mg/kg i.v. single dose, Day 20); 140 ± 14 mm^3 in data set [4] (1 mg/kg i.v. single dose, day 0); 196 ± 17 mm^3 in data set [4] (1 mg/kg i.v. single dose, day 3); 238 ± 21 mm^3 in data set [4] (1 mg/kg i.v. single dose, day 7); 267 ± 22 mm^3 in data set [4] (1 mg/kg i.v. single dose, day 10). The Tumor volume turned out to be 290 ± 29 mm^3 in data set [4] (1 mg/kg i.v. single dose, day 14); 317 ± 35 mm^3 in data set [4] (1 mg/kg i.v. single dose, day 17); 363 ± 47 mm^3 in data set [4] (1 mg/kg i.v. single dose, day 21); 394 ± 56 mm^3 in data set [4] (setting [5]); 457 ± 76 mm^3 in data set [4] (1 mg/kg i.v. single dose, day 28); 140 ± 20 mm^3 in data set [4] (3 mg/kg i.v. single dose, day 0). Moreover, the Tumor volume in data set [4] (3 mg/kg i.v. single dose, day 3) stood at 192 ± 27 mm^3; in data set [4] (3 mg/kg i.v. single dose, day 7) it was 219 ± 28 mm^3; in data set [4] (3 mg/kg i.v. single dose, day 10), 227 ± 30 mm^3; in data set [4] (3 mg/kg i.v. single dose, day 14), 198 ± 22 mm^3; in data set [4] (3 mg/kg i.v. single dose, day 17) it was 156 ± 15 mm^3; in data set [4] (3 mg/kg i.v. single dose, day 21), 116 ± 3 mm^3. For the same molecule, the Tumor volume was 75 ± 9 mm^3 in data set [4] (setting [6]) and 61 ± 9 mm^3 in data set [4] (3 mg/kg i.v. single dose, day 28). In addition, the T/C in data set [3] (1 mg/kg i.v. single dose) is reported as 65.06%; in data set [3] (3 mg/kg i.v. single dose) it was 28.70%; in data set [4] (setting [5]), 15.61%; in data set [4] (setting [6]), 2.99%. Besides, the TGI in data set [3] (1 mg/kg i.v. single dose) stood at 39.40%; in data set [3] (3 mg/kg i.v. single dose) it was 80.49%; in data set [4] (setting [5]) it was 89.37%; in data set [4] (setting [6]) it was 102.73%. The “anti-tumor activity (in words)” value in data set [3] (single dose, 1 and 3 mg/kg) was “significant dose-dependent anti-tumor activity”; in data set [4] (single dose, 1 and 3 mg/kg), “significant dose-dependent anti-tumor activity”.
